Experimental data published in PubChem BioAssay AID1460 (National Center for Advancing Translational Sciences (NCATS), 2008).
In all, about 270,000 compounds went through this assay and about 5,800 (2.1%) were called active. The shares of active, inactive and inconclusive entries below differ from those in the screen. Calls follow the shape of the dose curve; as a rule, active = well fitted inhibition curve with a large enough effect; inconclusive = small, poorly fitted or top-dose-only effect; inactive = flat fitted curve, though single readings scatter. Where the call is inconclusive, the potency comes from a doubtful curve fit.

target: Microtubule-associated protein tau (Homo sapiens) (UniProt P10636); assay: qHTS for Inhibitors of Tau Fibril Formation, Thioflavin T Binding; conditions: recombinant tau K18 P301L (four-repeat tau fragment), heparin-induced fibrillization, ThT fluorescence; series mostly up to 57.4 µM; also: nearly all actives have a fitted effect of over 55% in size
Chain of UniProt P10636 (P10636 whole entry, looked up, the tested form may be a part): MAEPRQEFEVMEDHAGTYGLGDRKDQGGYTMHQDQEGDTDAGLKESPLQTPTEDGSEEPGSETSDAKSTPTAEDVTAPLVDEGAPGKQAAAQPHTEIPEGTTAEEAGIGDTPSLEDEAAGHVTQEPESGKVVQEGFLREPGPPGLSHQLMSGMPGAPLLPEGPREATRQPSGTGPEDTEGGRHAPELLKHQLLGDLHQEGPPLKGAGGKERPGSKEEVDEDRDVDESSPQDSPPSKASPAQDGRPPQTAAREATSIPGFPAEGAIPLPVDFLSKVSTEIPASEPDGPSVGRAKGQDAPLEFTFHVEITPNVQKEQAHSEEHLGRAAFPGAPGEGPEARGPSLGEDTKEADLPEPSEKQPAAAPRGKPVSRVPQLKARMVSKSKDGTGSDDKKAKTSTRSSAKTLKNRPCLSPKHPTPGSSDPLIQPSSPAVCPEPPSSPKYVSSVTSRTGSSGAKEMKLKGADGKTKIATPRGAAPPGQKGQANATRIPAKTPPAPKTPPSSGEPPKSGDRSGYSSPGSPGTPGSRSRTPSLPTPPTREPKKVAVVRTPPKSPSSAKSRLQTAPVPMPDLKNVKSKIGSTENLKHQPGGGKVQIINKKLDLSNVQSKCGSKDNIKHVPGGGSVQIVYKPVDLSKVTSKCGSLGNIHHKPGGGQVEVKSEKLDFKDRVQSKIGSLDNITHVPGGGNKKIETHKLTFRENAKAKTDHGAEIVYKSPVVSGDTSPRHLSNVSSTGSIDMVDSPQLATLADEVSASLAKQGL
Method in brief: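 Recombinant human tau K18 fragment […] carrying P301L, 15 uM unlabeled plus 0.24 uM Alexa 594-labeled, was fibrillized with 20 uM heparin in 100 mM sodium acetate pH 7 for 6 hr at 37 C; 30 uM ThT fluorescence read after 1 hr.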
Potency is read from the fitted curve at half-maximal effect; tags tell the direction and shape of the fitted curve.

Q: Which Potency does the source give for CCOc1ccc(NCc2nnc(SCC(=O)Nc3cc(C)on3)n2-c2ccccc2OC)cc1 here?
A: inconclusive: 28.2 µM [inhibitor, single point]

Q: Which Potency does the source give for COc1ccc(-c2cnn(-c3ccccc3)c2N)cc1OC here?
A: inconclusive: 12.6 µM [inhibitor, partial curve, poor fit]

Q: CN(C)c1cccc2c1c(NC(=O)Nc1ccc(Cl)cc1Cl)nn2C was tested. Which Potency did it give?
A: inconclusive: 28.2 µM [inhibitor, partial curve, poor fit]

Q: How did the Potency turn out when Cc1ccccc1OCc1n[nH]c(=S)n1Cc1ccccc1 was run?
A: inactive

Q: With O=C(CO/N=C/c1ccccc1O)N1CCc2ccccc21 as the compound, how does the Potency read?
A: inconclusive: 25.1 µM [inhibitor, partial curve, poor fit]

Q: How did the Potency turn out when c1ccc(N2CCN(c3nc4ccccc4n4cnnc34)CC2)cc1 was run?
A: inconclusive: 17.8 µM [inhibitor, partial curve]

Q: For CC/C(=C\C(=O)c1ccncc1)Nc1ccc(Br)cc1, which Potency is on record?
A: inconclusive: 31.6 µM [inhibitor, partial curve]

Q: How did the Potency turn out when Cc1ccccc1OCC(=O)Nc1ccc(C(N)=O)cc1 was run?
A: inconclusive: 14.1 µM [inhibitor, partial curve]

Q: For Cc1ccc(N=Cc2ccc(O)cc2O)cc1F, which Potency is on record?
A: inconclusive: 35.5 µM [inhibitor, single point]

Q: With CCCCNC(=O)Cc1coc2ccc3ccccc3c12 as the compound, how does the Potency read?
A: inactive

Q: Which Potency does the source give for CCCNC(=O)c1ccc(CN2CCc3ccccc3C2)cc1 here?
A: inactive

Q: Which Potency does the source give for Cc1nc2ccccn2c1C(=O)CSc1ccccc1 here?
A: inactive

Q: Which Potency does the source give for COc1ccc2c(c1)[nH]c1c(=O)n(CCN3CCCC3)cnc12 here?
A: inconclusive: 17.8 µM [inhibitor, single point]

Q: With Cc1noc(C(=O)Nc2c(C)n(C)n(-c3ccccc3)c2=O)c1Cl as the compound, how does the Potency read?
A: inactive

Q: Which Potency does the source give for Clc1ccc(-c2cc3ncc4c(n3n2)-c2ccccc2OC4)cc1 here?
A: inactive

Q: Which Potency does the source give for COc1ccc(CCNc2nc(C)nc3c2oc2ccccc23)cc1OC here?
A: inconclusive: 39.8 µM [inhibitor, single point]

Q: How did the Potency turn out when Cc1ccc(-c2nnc3n2N=C(c2ccccc2Br)CS3)cc1 was run?
A: inactive

Q: Which Potency does the source give for Clc1ccc(SCCOCCN2CCc3ccccc3C2)cc1 here?
A: inconclusive: 14.1 µM [inhibitor, partial curve, poor fit]

Q: With C=CSc1sc(Cl)c(N(CC)CC)c1[N+](=O)[O-] as the compound, how does the Potency read?
A: inconclusive: 15.8 µM [inhibitor, single point]

Q: With COc1cc(Nc2ncc3c(n2)CCN(Cc2ccc(OC(C)C)c(OC)c2)C3)cc(OC)c1 as the compound, how does the Potency read?
A: inconclusive: 44.7 µM [inhibitor, single point]

Q: How did the Potency turn out when Cc1[nH][nH]c(=O)c1N=Nc1ccccc1Cl was run?
A: inconclusive: 17.8 µM [inhibitor, partial curve]

Q: O=C(c1cc(-c2cccc(O)c2)on1)N1CCOCC1 was tested. Which Potency did it give?
A: inactive

Q: CCOc1ccc2nc(N3CCCC(C(=O)Nc4ccc(OC)cc4)C3)sc2c1 (configuration not stated) was tested. Which Potency did it give?
A: inconclusive: 14.1 µM [inhibitor, partial curve]

Q: How did the Potency turn out when COC1(C)CC2C(CC1OC(=O)c1cc([N+](=O)[O-])cc([N+](=O)[O-])c1)C2(C)C (configuration not stated) was run?
A: inconclusive: 22.4 µM [inhibitor, partial curve]

Q: How did the Potency turn out when Cc1nn(-c2cccc(Cl)c2)c2c1C(c1cccnc1)C(C#N)=C(N)O2 (configuration not stated) was run?
A: inconclusive: 4.47 µM [inhibitor, partial curve]

Q: With O=[N+]([O-])c1cc(Br)c(O)c(/C=N/Nc2nnnn2-c2cccc3ccccc23)c1 as the compound, how does the Potency read?
A: active: 15.8 µM

Q: With CC(Nc1cc(N2CCOCC2)ccc1[N+](=O)[O-])c1ccccc1 (configuration not stated) as the compound, how does the Potency read?
A: inconclusive: 11.2 µM [inhibitor, partial curve]

Q: For CCn1c(SCC(=O)N2CCN(c3ccccc3)CC2)nnc1-c1cc2cc(Cl)ccc2o1, which Potency is on record?
A: inconclusive: 10 µM [inhibitor, partial curve]

Q: How did the Potency turn out when COc1ccc(C)cc1NS(=O)(=O)c1cnc(N)nc1 was run?
A: inactive

Q: CCCCNC(=O)CN1CCC2(O)CCCCC2C1c1ccccc1OC (configuration not stated) was tested. Which Potency did it give?
A: inactive

Q: For COc1ccc(C=O)cc1COc1ccc([N+](=O)[O-])c(C)c1, which Potency is on record?
A: inconclusive: 17.8 µM [inhibitor, partial curve]

Q: CCc1ccccc1NC(=O)Cn1nnc2sc3c(c2c1=O)CCC(C(C)(C)C)C3 (configuration not stated) was tested. Which Potency did it give?
A: inactive

Q: For Cc1nc(C)c(C(=O)N/N=C/c2ccco2)s1, which Potency is on record?
A: inactive

Q: Which Potency does the source give for O=C(c1cc2ccc3cccnc3c2[nH]1)N1CCCCC1 here?
A: inconclusive: 15.8 µM [inhibitor, partial curve]

Q: For O=C(Nc1ccccc1C(=O)O)c1ccc(NC(=O)c2ccc(Br)o2)cc1, which Potency is on record?
A: inconclusive: 25.1 µM [activator, single point]

Q: For CCOC(=O)CSc1nnc(CNc2ccc(Cl)cc2)n1Cc1ccccc1, which Potency is on record?
A: inactive

Q: Which Potency does the source give for CCc1cc(/C(Cc2ccccn2)=N\Nc2ccccc2)c(O)cc1O here?
A: inconclusive: 39.8 µM [inhibitor, single point]

Q: Which Potency does the source give for Cc1ccc(C)c(NC(=O)Cc2coc3cc(C)cc(C)c23)c1 here?
A: inactive

Q: COc1cccc(CNC(=O)C2CCN(S(=O)(=O)c3c(C)noc3/C=C/c3cccs3)CC2)c1 was tested. Which Potency did it give?
A: inactive

Q: How did the Potency turn out when Cc1nc(SCC(=O)c2ccccc2)c([N+](=O)[O-])[nH]1 was run?
A: inconclusive: 25.1 µM [inhibitor, partial curve]

Q: Cc1ccc(-c2nnn(CC(=O)N(c3cccc(F)c3)C(C(=O)NC(C)(C)C)c3ccco3)n2)o1 (configuration not stated) was tested. Which Potency did it give?
A: inactive

Q: COC(=O)c1ccc(/C=N/NC(=O)CNc2cccc(C)c2)cc1 was tested. Which Potency did it give?
A: inconclusive: 8.91 µM [inhibitor, full curve]

Q: With COC(=O)c1c(C)n(-c2ccccc2)c2ccc(O)cc12 as the compound, how does the Potency read?
A: inconclusive: 28.2 µM [inhibitor, single point]

Q: Cc1ccc(-c2nc(NCc3ccco3)c3ccccc3n2)cc1 was tested. Which Potency did it give?
A: inconclusive: 17.8 µM [activator, single point]

Q: O=C(Nc1ccccc1C(=O)O)c1ccccc1 was tested. Which Potency did it give?
A: inactive

Q: COc1ccc(NC(=O)C2CCN(C3=NS(=O)(=O)C(c4ccc(C)c(C)c4)=C3C)CC2)c(OC)c1 was tested. Which Potency did it give?
A: inconclusive: 28.2 µM [inhibitor, partial curve]

Q: With COC(=O)c1sc2nc(CSc3nc4ccc(C)cc4[nH]3)[nH]c(=O)c2c1C as the compound, how does the Potency read?
A: inconclusive: 2.82 µM [inhibitor, full curve]

Q: With O=C(COc1ccc(Cl)cc1)Nc1nc(-c2cccs2)cs1 as the compound, how does the Potency read?
A: inconclusive: 25.1 µM [inhibitor, partial curve]

Q: For COc1cc(C2NC(=O)NC(C)=C2C(=O)OC(C)C)ccc1OC(=O)c1ccco1 (configuration not stated), which Potency is on record?
A: inactive

Q: With Cc1nc(NC(=O)c2csc3ccccc23)sc1C as the compound, how does the Potency read?
A: inconclusive: 39.8 µM [inhibitor, single point]

Q: With Cc1ccc(NC(=O)N2CC3CCCN3c3ccccc32)cc1Cl (configuration not stated) as the compound, how does the Potency read?
A: inconclusive: 12.6 µM [inhibitor, partial curve]

Q: Which Potency does the source give for COc1ccc2nc(NNC(=O)c3cc(=O)c4ccccc4o3)sc2c1 here?
A: active: 4.47 µM

Q: Which Potency does the source give for Cc1cccc[n+]1C1C(c2ccccc2)C(C#N)=C(C(=C=[N-])C#N)NC1(O)C1CC1 (configuration not stated) here?
A: active: 17.8 µM

Q: For O=C(OCc1cc(=O)n2nc(-c3cccs3)sc2n1)c1cccc(F)c1, which Potency is on record?
A: inconclusive: 1.78 µM [inhibitor, full curve]

Q: With COc1ccc(NC(=O)c2nnn(Cc3cccc(F)c3)c2N)c(OC)c1 as the compound, how does the Potency read?
A: inactive

Q: With COc1ccccc1Nc1nc(-c2ccccc2)nc2ccccc12 as the compound, how does the Potency read?
A: inactive

Q: How did the Potency turn out when CCOc1ccc(-c2nc(CSCC(=O)N3CCN(C(=O)c4ccco4)CC3)c(C)o2)cc1 was run?
A: inconclusive: 25.1 µM [inhibitor, partial curve]

Q: With Oc1ccc(Cn2ccnc2)c2cccnc12 as the compound, how does the Potency read?
A: inconclusive: 2.24 µM [inhibitor, full curve, poor fit]

Q: For Cc1cccc(NC(=O)CSc2ccc(-c3sc(-c4ccccc4)nc3C)nn2)c1C, which Potency is on record?
A: inconclusive: 8.91 µM [inhibitor, partial curve]

Q: How did the Potency turn out when CCCCOC(=O)c1ccc(NC(=O)c2cnccn2)cc1 was run?
A: inconclusive: 7.08 µM [inhibitor, partial curve, poor fit]

Q: O=C(Cc1nc2ccccc2[nH]1)c1ccc(Br)cc1 was tested. Which Potency did it give?
A: inconclusive: 17.8 µM [inhibitor, single point]

Q: Which Potency does the source give for CCOC(=O)c1oc2nc(CC(C)C)c3c(c2c1N)CCCC3 here?
A: inconclusive: 17.8 µM [inhibitor, partial curve]

Q: Which Potency does the source give for O=C(CSc1ccc2nnc(-c3cccnc3)n2n1)NCc1ccco1 here?
A: inconclusive: 31.6 µM [inhibitor, partial curve, poor fit]

Q: How did the Potency turn out when Cc1ccc2nc(SCC(=O)Nc3ccc(C)c([N+](=O)[O-])c3)[nH]c2c1 was run?
A: inconclusive: 14.1 µM [inhibitor, partial curve]

Q: N#CC1=C(N)Oc2n[nH]c(-c3ccc(F)cc3)c2C1c1cccnc1 (configuration not stated) was tested. Which Potency did it give?
A: inconclusive: 39.8 µM [inhibitor, single point]

Q: With O=C1C=C(c2ccc(Cl)cc2)C(=O)N1Nc1ccccc1 as the compound, how does the Potency read?
A: inconclusive: 31.6 µM [inhibitor, single point]

Q: For COc1ccc(-c2nnc(Sc3nc4ccccc4o3)c3ccccc23)cc1, which Potency is on record?
A: inconclusive: 7.94 µM [inhibitor, full curve]

Q: How did the Potency turn out when Cc1cc(Br)cc(C)c1NC(=O)c1sc2ncn(Cc3cccc(F)c3)c(=O)c2c1C was run?
A: inconclusive: 14.1 µM [activator, partial curve]

Q: With Cc1ccccc1N1C(=O)c2cccc3c(N(C)CCO)ccc(c23)C1=O as the compound, how does the Potency read?
A: inconclusive: 35.5 µM [inhibitor, single point]

Q: With CC1CCN(C(=O)c2cc3c(=O)n(C)c4cc(Cl)ccc4c3s2)CC1 as the compound, how does the Potency read?
A: inactive

Q: How did the Potency turn out when CCCOc1ccc(-c2nonc2NC(=O)c2ccco2)cc1OCCC was run?
A: inactive

Q: O=C(O)C1CC=CCC1C(=O)Nc1ccc(Oc2ccc(Cl)cc2)cc1 (configuration not stated) was tested. Which Potency did it give?
A: inactive
